The supplement of paper PMC12067230
The data scatter; read single values as rough.

Assay: amyloid nucleation score relative to library mode (yeast Sup35 reporter selection) (log enrichment difference); higher = more amyloid nucleation; sequences are the first 22 residues of the Bri2 peptide extended by up to 12 random residues
Conditions: random library (experiment): 1;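 active = nucleation score significantly above 0 at FDR 0.05; inactive = not significantly above 0 or absent from output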
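Also: [psi-pin-] Saccharomyces cerevisiae expressing SupN fusions, induced by 100 µM Cu2SO4, selected 7 d at 30 °C without adenine and uracil, scored by deep sequencing of output versus input.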

Sequence	amyloid nucleation score
EASNCFAIRHFENKFAVETLICIPGSWESLGSWP	3.61
EASNCFAIRHFENKFAVETLICMVAHV	inactive
EASNCFAIRHFENKFAVETLICKRYYNKVRYVTR	0.482
EASNCFAIRHFENKFAVETLICLSYQVVSRISVM	inactive
EASNCFAIRHFENKFAVETLICLSRMPNVIRFLS	inactive
EASNCFAIRHFENKFAVETLICTKLRHELETIVR	0.443
EASNCFAIRHFENKFAVETLICEI	0.645
EASNCFAIRHFENKFAVETLICRLTRTSDFTCHL	inactive
EASNCFAIRHFENKFAVETLICARLCR	inactive
EASNCFAIRHFENKFAVETLICTIQDWQPFNANK	4.24
EASNCFAIRHFENKFAVETLICIWGTLSLYAPCT	inactive
EASNCFAIRHFENKFAVETLICGMRGLGPNCFSC	inactive
EASNCFAIRHFENKFAVETLICCGM	7.56
EASNCFAIRHFENKFAVETLICFRHDVLHRRWAE	3.89
EASNCFAIRHFENKFAVETLICKIIVLSKVFGVT	inactive
EASNCFAIRHFENKFAVETLICPRLHFLFYGSVS	3.93
EASNCFAIRHFENKFAVETLICGTKPSNALSLGL	inactive
EASNCFAIRHFENKFAVETLICGLRVRMAVQASS	inactive
EASNCFAIRHFENKFAVETLICDGTLAPTSGSSL	-0.154
EASNCFAIRHFENKFAVETLICNTSYWCDVESCR	inactive
EASNCFAIRHFENKFAVETLICFEGACVCVMGW	4.39
EASNCFAIRHFENKFAVETLICRVQWKWEAAR	inactive
EASNCFAIRHFENKFAVETLICGHCSFISLVRWT	5.17
EASNCFAIRHFENKFAVETLICLLRRLRGLFRIA	inactive
EASNCFAIRHFENKFAVETLICEIGLERA	inactive
EASNCFAIRHFENKFAVETLICYHEA	inactive

Same assay, conditions: random library (experiment): 2

Sequence	amyloid nucleation score
EASNCFAIRHFENKFAVETLICNMVGTVYGHPGA	7.81
EASNCFAIRHFENKFAVETLICAKVFTHGRAVTA	-0.344
EASNCFAIRHFENKFAVETLICCGFFATYSKWWD	5.46
EASNCFAIRHFENKFAVETLICLDPRSCRRVPPR	-0.0198
EASNCFAIRHFENKFAVETLICYIYGEIVGISW	inactive
EASNCFAIRHFENKFAVETLICPPREGWRVLVGL	inactive
EASNCFAIRHFENKFAVETLICYSYLMNTCNCTF	5.88
EASNCFAIRHFENKFAVETLICYSLSYKFLLFVN	inactive
EASNCFAIRHFENKFAVETLICNSSIAKTVYVVW	inactive
EASNCFAIRHFENKFAVETLICDGFILNHFIWIL	-0.262

Same assay, conditions: random library (experiment): 3

Sequence	amyloid nucleation score
EASNCFAIRHFENKFAVETLICWCESGGLGGS	inactive
EASNCFAIRHFENKFAVETLICLVGNAWDTPWRV	7.03
EASNCFAIRHFENKFAVETLICIASMPVFRTFTA	inactive
EASNCFAIRHFENKFAVETLICVQWAVWLHVS	inactive
EASNCFAIRHFENKFAVETLICDAGLDGLVWRAG	inactive
EASNCFAIRHFENKFAVETLICLYSRSLVKCLLG	inactive
EASNCFAIRHFENKFAVETLICNSGPYAAVETWQ	inactive
EASNCFAIRHFENKFAVETLICGLGWYRLQSARF	inactive
EASNCFAIRHFENKFAVETLICWDAPHGG	inactive
EASNCFAIRHFENKFAVETLICLSVRMV	inactive
EASNCFAIRHFENKFAVETLICGQVMAGCSVRVT	5.83
EASNCFAIRHFENKFAVETLICMLLLESL	inactive
